From the RNAGym collection of RNA variant scans (doi:10.1073/pnas.2313332121) come the findings set out here.

Variants at the background level are over-represented here. Bounds are passed on as bounds.

The labels stand for the following.
B1: TPR 5TU (parent)
chain: GGAUCUUCUCGAUCUAACAAAAAAGACAAAUCUGCCACAAAGCUUGAGAGCAUCUUCGGAUGCAGAGGCGGCAGCCUUCGGUGGCGCGAUAGCGCCAACGUUCUCAACUAUGACACGCAAAACGCGUGCUCCGUUGAAUGGAGUUUAUCAUG

This data set covers variants of B1. Nature of the data set: polymerase ribozyme fitness, log enrichment relative to wild type (log ratio); higher = more active; in vitro selection for triplet polymerase activity. A digest of the protocol:
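Streptavidin-bead capture of gel-excised extended constructs, followed by RT-PCR, closed a single triplicate in vitro selection round. That round began by annealing PCR-built, transcribed mutant libraries of each subunit of a heterodimeric triplet polymerase ribozyme with a biotinylated primer, the partner subunit and triplets, then incubating them frozen at −7 °C. After Illumina sequencing of inputs and outputs, genotypes needed ≥10 input reads and ≥1 read per output. Fitness is the base-2 logarithm of genotype enrichment over wild-type enrichment, using inverse-variance-weighted replicate averages.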
Consider GGAUCUUCUCGAUCUAACAAAAAAGACAAAUCUGCCACAAAGCUUGAGCGCAUCUUAGGAUGCAGAGGCGGCAGCCUUCGGUGUCGCGAUAGCGCCAACGUUCUCAACUAUGACACGCAAAACGCGUGCUCCGUUUAAUGGAGUUUAUCAUG [A49C C57A G84U G136U], for which the “polymerase ribozyme fitness (log ratio)” value is no more than -4.2.
Consider GGAUCUUCUCGAUCUAACAAAAAAGACAAAUCUGCCACAAAGCUUGAGCGACUCUUCGGAUGCAGAGGCGGCAGCCUUCGGUGGCGCGAUAGCGCCAGCGUUCUCAACUAUGACACGCAAAACGCGUGCUCCGUUGAAUGGAGUUCAUCAUG [A49C C51A A52C A98G U146C], for which the “polymerase ribozyme fitness (log ratio)” value was no more than -4.2.
Turning to GGAUCUUCUCGAUCUAACAAAAAAGACAAAUCUGCCACAAAGCUUGAGCGCAUCUUCGGAUGCAGAGGCUGCAGCCUUCGGUGGCGCGAUAGCGCCAUCGUUCUCAACUAUGACACGCAAAACGCGUGCUCCUUUGAAUCGAGUUUAUCAUG [A49C G70U A98U G133U G140C], the “polymerase ribozyme fitness (log ratio)” value was no more than -4.2.
For the variant GGAUCUUCUCGAUCUAACAAAAAAGACAAAUCUGCCACAAAGCUUGAGCGGAUCUUCGGAUGCAGAGGCGGCAGCCUUCGGUGGCGCGAUAGCGCCAACGUUCUCAACUAUGACACCCAAAACGCGUGCUCCGUUGAAUGGAGUUUAUCAUG [A49C C51G G117C], the “polymerase ribozyme fitness (log ratio)” value is no more than -4.2.
With GGAUCUUCUCGAUCUAACAAAAAAGACAAAUCUGCCACAAAGCUUGAGCGCAUCUUCGGAUGCAGAGGCGGCAGCCUUCGGUGGCGCGAUAGAGCAAACGUUCUCAACUAUGACACGCAAAACGCGUGCUCCGUUGAUUGUAGUUUAUCAUG [A49C C93A C96A A138U G141U], the “polymerase ribozyme fitness (log ratio)” value is no more than -4.2.
For GGAUCUUCUCGAUCUAACAAAAAAGACAAAUCUGCCACAAAGCUUGAGCGCAUCUUCGGAUGCAGAGUCGACAGCCUGCGGUGGUGCGAUAGCGCAAACGUUCUCAACUAUGACACGAAAAACGCGUGCUCCGUUGAAUGAAGUUUAUCAUG [A49C G68U G71A U78G C85U C96A C118A G141A] the value was no more than -4.2; for GGAUCUUCUCGAUCUAACAAAAAAGACAAAUCUGCCACAAAGCUUGAGCGCAUCUUGGGAUGCAGAGGCGGCAUCCUUCGGUGGCGCGAUAGCGCCAACGUUCUCAACUAUGACACGCAAAGCGCGUGCUCCGUUGAAUGGAGUUUAUCAUG [A49C C57G G74U A122G], no more than -4.2; for GGAUCUUCUCGAUCUAACAAAAAAGACAAAUCUGCCACAAAGCUUGAGCACAUCUUCGGAUGCAGAGGCGGCAGCCUUCGGUGGCGCGAUAGCGCCAACGUUCUCAACUAUGACACGCAAAACGCGUGCUCCGUUGAAUGGAGUUUAUCAUG [A49C G50A], no more than -4.2.
The result for GGAUCUUCUCGAUCUAACAAAAAAGACAAAUCUGCCACAAAGCUUGAGCGCAUCUUGGGAUGCAGAGGCGGCAGCCUUCGGAGGCGCGAUAGCGCCAACGUUCUCAACUAUCACACGCAUAAAGCGUGCUCCCUUGAAUGGAGUUUAACAUG [A49C C57G U82A G112C A120U C123A G133C U148A] reads no more than -4.2; that for GGAUCUUCUCGAUCUAACAAAAAAGACAAAUCUGCCACAAAGCUUGAGCGCAUCUUCGGAUGCAGAGGUGGCAGCCUUCGGGGGCGCCAUAGCGCCAAGGUUCUCAACUAUGACACGCAAAACGCGUGCUCCGUUAAAUGGAGUUUAUCAUG [A49C C69U U82G G88C C99G G136A], no more than -4.2; that for GGAUCUUCUCGAUCUAACAAAAAAGACAAAUCUGCCACAAAGCUUGAGCGCAUCUUCGCAUGCAGAGGAGGCAGCCUUCGGUGACGCGAUAGCGCCAACGUUCUCAACUAUGACACGCAAAACGCGUGCUCCGUUGACUGGAGUUUAUCAUG [A49C G59C C69A G84A A138C], no more than -4.2.
For GGAUCUUCUCGAUCUAACAAAAAAGACAAAUCUGCCACAAAGCUUGAGCGAAUCUUCGGAUGCAGAGGCGGCAGCCUUCGGUGGCGCGAUAGCACCAACGUUCUCAACGAUGACACGCAAAACGCGUGCUCCGUUGAAUGGAGUUUAUCAUG [A49C C51A G94A U109G], the “polymerase ribozyme fitness (log ratio)” value is no more than -4.2.
Take GGAUCUUCUCGAUCUAACAAAAAAGACAAAUCUGCCACAAAGCUUGAGCGCAUCUUCGGAUGCAGAGGCGGCAGCCUUCGGUGGCGAGAUAGCGCCAACGUUCUCAACUAUGACACGCAAAACGCGUGCUCCGUUGAAUGGAGUUUAUCAUG [A49C C87A]: the “polymerase ribozyme fitness (log ratio)” value was no more than -4.2.
For the variant GGAUCUUCUCGAUCUAACAAAAAAGACAAAUCUGCCACAAAGCUUGAGCGCAUCUUCGGAUGCAGAGACGGCAGCCUUAGGUGGCGCGAUGGCGCCAACGUUCUCAACUAUGACACGCAAAACGAGUGCUCCGUUGAAUGGAGUUUAUCGUG [A49C G68A C79A A91G C125A A150G], the “polymerase ribozyme fitness (log ratio)” value was no more than -4.2.
The result for GGAUCUUCUCGAUCUAACAAAAAAGACAAAUCUGCCACAAAGCUUGAGCGCAUCUUCGGAUGCAGAGGCGGCAGCCUUCGGUGGGGCGAUAGCGCCAACGUUCUUCACUAUGACACGCAAAACGCGUGCUCCGUUGAAUGGAGUUUAUCAUG [A49C C85G C105U A106C] reads no more than -4.2; that for GGAUCUUCUCGAUCUAACAAAAAAGACAAAUCUGCCACAAAGCUUGAGCGCAUCUUCGGAUGCAGAGGCGGCAACCUUCGGUGGAGCGAUAGCGCCAACGUUCUCAAAUAUGACACGCAAAACGCGUGCUCCGUUGAAUGGAGUUUAUCAUG [A49C G74A C85A C108A], no more than -4.2.
For GGAUCUUCUCGAUCUAACAAAAAAGACAAAUCUGCCACAAAGCUUGAGCGCAUCUUAGGAUGCAGAGGCGGCAGCCUUCGGUGGCGCGAUAGCGCCAACGUUCUCAACUAUGACACGCAAAACGCGUGCUCCGUUGAAUGGAGUUUAUCAUG [A49C C57A], the “polymerase ribozyme fitness (log ratio)” value is no more than -4.2.
Consider GGAUCUUCUCGAUCUAACAAAAAAGACAAAUCUGCCACAAAGCUUGAGCGCAUUUUCGGUUGCAGAGGCGGCAGCCUUCGGUGGCGCGAUCGCGCCAACAUUCUCAACUAUGACACGCAAAACGCGUGCUCCGUUUAACGGAGUUUAUCAUG [A49C C54U A60U A91C G100A G136U U139C], for which the “polymerase ribozyme fitness (log ratio)” value was no more than -4.2.
For GGAUCUUCUCGAUCUAACAAAAAAGACAAAUCUGCCACAAAGCUUGAGCGCAUCUUAGGAUGCAGAGGCGGCAGCCUUCGGUGGCGCCAUAGCGCCAACGUUCUCAACUAUGACACGCAAAACGCGUGCUCCGUUGAAUGGAGUUUAUCAUG [A49C C57A G88C], the “polymerase ribozyme fitness (log ratio)” value was no more than -4.2.
